Laboratory results: the supplement of paper PMC10338343
± gives the standard deviation. The entries are a selection whose mix differs from that of the whole data set.

test system: MIWI (PIWIL1) piRISC loaded with piRNA #1 (30 nt); test: pre-steady-state target cleavage rate (min^-1); MIWI and MILI are mouse PIWI proteins and EfPiwi is from a freshwater sponge; tags in brackets are library labels; higher = faster piRNA-guided slicing of the target; conditions: guide: piRNA #1 5'p-UGAGGUAGUAGGUUGUAUAGUAUCCAGAGG; auxiliary factor: 500 nM mouse GTSF1
Summary of the method: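 With or without 500 nM GTSF1 partner protein, 1 nM active affinity-purified piRISC carrying one synthetic guide was mixed with 0.1 nM transcribed, DNA-blocked target RNA library in HEPES–potassium acetate buffer at 33 °C for 0–8 or 0–960 min. Uncleaved targets were sequenced and normalised to depth and to weakly complementary targets, three trials were pooled, and k3 was capped at 0.0001 min^-1. The pre-steady-state cleavage rate came from a burst-and-steady-state fit.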

Sequence	pre-steady-state target cleavage rate
GGAGUGGAUACUUUACAACGUACUACCUCA	0.714 ± 0.045
GGAGACCUAUGAUAUCAACCUAGUACCACA	< 0.0001
GGAGACCUAUGAAUACAAGCAACUACCUCA	< 0.0001
GGAGUGGAUACUAUACAACCUAGUACGUCA	0.00325 ± 0.0019
CCUCUGGAUACUAUACAACCAACUACCUCA	0.235 ± 0.031
GGAGUGGAUACUAUACAACCUAGUACCUCA	0.37 ± 0.046
GGAGUGGAUUCUAUACAACCAACUACCUCA	0.118 ± 0.0085
GGAGUGGAUACUAUACAACCUUACUACCUCA	0.00348 ± 0.0026
CCUCUGGAUACUAUUCAACCUACUUCCUCA	0.659 ± 0.051
GGAGACCUUACUAUACAACCAUCUACCUCA	0.0142 ± 0.0048
CCUCUGGAUACCAUACAACCUACUACCUCA	1.09 ± 0.081
GGUCAGGUUACUAUACAACCUACUACCUCA	1.8 ± 0.11
CCUCUGGAUACUAUACAAGCUACUAGCUCA	0.751 ± 0.081
GGAGACCUAUGUAUACAACCUACUAGCCUCA	0.0396 ± 0.0073
GGAGACCUAUGAUAUGAACGUACUACCUCA	< 0.0001
GGAGAGGAUUCAAUACAACCUACUACCUCA	0.735 ± 0.05
GGAGACCUUACUUUACAACCUUCUACCUCA	0.225 ± 0.022
GGAGACGAUACUAUACAACCACUACCUCA	0.00948 ± 0.0039
GGAGAGGAUACUAUAGAACCUACUACCUCA	0.993 ± 0.061
GGAGACGAUACAAUACAAGCUACUACCUCA	0.774 ± 0.057

Sequence	pre-steady-state target cleavage rate
GGAGAGGAAAGUAUACAACCUACUACCUCA	0.113 ± 0.016
CCUCAGGAUACUUUACAACCUACUACCUCA	2.1 ± 0.13
GGAGAGGAUACUAUUCAACCUAGUACCUCA	0.0846 ± 0.02
GGAGAGGUUACUAUACAACCUAGUACCUCA	0.0202 ± 0.0062
GGAGACCAUAGUAUACAACCUACUUCCUCA	0.153 ± 0.028
GGUCUGGAUACUAUACAACCUACAUCCUCA	0.0497 ± 0.0096
GGUCUGCAUACUAUACAUCCUACUACCUCA	1.49 ± 0.086
CCUCUGGAUACUAUACAACCUACAACCACA	0.852 ± 0.092
GGACUGGAUACAAUACAACCUACUACCACA	0.634 ± 0.056
GGAGACCUUACUAUACAUGCUACUACCUCA	0.291 ± 0.029
GGAGACCUAACGUAUACAACCUACUACCUCA	0.11 ± 0.025
GGAGACGAUUCUAUACUACCUACUACCUCA	1.11 ± 0.1
GGAGACCUAACUAUACAACCUUGUACCUCA	0.00406 ± 0.0034
GGAGACCUAACUAUUGAACCUACUACCUCA	0.00633 ± 0.0026
GGAGAGGAUUACUAUACAACCUACUACCUCA	1.38 ± 0.08
GGAGACCAUACUAUACAACUACUACCUCA	0.162 ± 0.016
GGAGACCUAUGAUAUGUUGCUUCUACCUGA	< 0.0001
GGAGACGAUACUAUACAACCUACUACUCA	0.62 ± 0.04
GGAGACCUAUCUUUACAACGUACUACCUCA	0.00639 ± 0.0027
GGACUGGAUACUAUACAACCUACUAACCUCA	0.843 ± 0.068
